Results on 14 molecules are retold here after publication PMC12136788.

The list shows a part of the results.

B1: chr8:104439394:104439395:+_ENSG00000164934_ENST00000297579|hu_mus|motif|central (ssRNA)
RNA: GGGAGUUCUACAGUCCGACGAUCGCUGUCAAAUCCCCAGUUCAUUGAGCACACAGGGCUGGUUCUUUGUUCAUCCCAAAUGUCGGCUUGCUGUCCACAAGUGGCAAAGACUGGGUCUUUCCAGUGAUGAUCAAUGCCAGUAUACAACAGAGGAUUGAGCAUCA
B2: chr18:25532265:25532266:-_ENSG00000170558_ENST00000399380|hu_hu|FALSE|FALSE (ssRNA)
RNA: GGGAGUUCUACAGUCCGACGAUCGGAAUUAAGGGAGCUCAAGGACCCAGCAGUGGAGCCACUGCCUUCAUAGUCAAACACUAACAGGGAGUCAUAUGGUGGAGCUGUGGGGUCAUUGUCAGCCGCUUUAAGGCCCUCAUUAAUCAACAGAGGAUUGAGCAUCA
B3: chr4:117809766:117809767:-_ENSMUSG00000033326_ENSMUST00000106406|mus_hu|motif|central (ssRNA)
RNA: GGGAGUUCUACAGUCCGACGAUCAGGCAAACAAAUUCUUGAGGAGCAAAAACCUGUUUAACCCCUUCAGUAUUGCCCUCGGGUCCCACCCCCCACCCCAAAAUCAGCUCCCUCCCACCUACAGUGGGCCUCCAAUGGCCCCAGCAACAGAGGAUUGAGCAUCA
B4: chr3:89559821:89559822:-_ENSMUSG00000027950_ENSMUST00000029562|mus_hu|FALSE|FALSE (ssRNA)
RNA: GGGAGUUCUACAGUCCGACGAUCUGAAGACCUCGGCUAGCUCUGUCAUCUUCAUUUUGUAGAUGCAGCACAGCCGGGUCUUAAAAGAGGUCAAACAGCAGACAAGCUCUAGGCCUGUUUACUCGUGUGUUAACCGGGUCAUGGCAACAGAGGAUUGAGCAUCA
B5: chr7:150915252:150915253:-_ENSG00000033050_ENST00000287844|hu_mus|motif|central (ssRNA)
RNA: GGGAGUUCUACAGUCCGACGAUCCUUCCCUGCUCCAUUGGGUCCUACCAGAGCCACUCGUGUGUCAAGAUCAAUACCAAAUUCGGGAUUAUUGUAGAUGCAAGGCCCGUCUUUCGUAUAUUUGAAGCUCACGUUCUGCACCAUCAACAGAGGAUUGAGCAUCA
B6: chr17:62495991:62495992:-_ENSG00000108654_ENST00000581693|hu_hu|FALSE|FALSE (ssRNA)
RNA: GGGAGUUCUACAGUCCGACGAUCCACCAUAAUUACUGCUGCACUGCAGUCAUUUCUGCAAUUCCCAUGUUUCUUAAAUAACUAUCUUGUCAGAUAACACACAAUAUAAAGAGCAAUUAUGAAAAACAGACAUUUACAUAUACUCAACAGAGGAUUGAGCAUCA
B7: chr3:176767854:176767855:-_ENSG00000177565_ENST00000430069|hu_hu|hu_hu_hu_mus_False|28_48 (ssRNA)
RNA: GGGAGUUCUACAGUCCGACGAUCGACAUCCUUGUUACUGGGCACGUCCUGCCCUCCUUCCCGUAUGCAGUGUCUAAGCACGAGCUGUGUAGAGCCACUCGUGCUGUUCUCACUAAGGUUCCAGAUUCUUGCCGUGGAGUCUCCCAACAGAGGAUUGAGCAUCA
B8: chr16:32386223:32386224:+_ENSMUSG00000053774_ENSMUST00000115151|mus_mus|motif|central (ssRNA)
RNA: GGGAGUUCUACAGUCCGACGAUCAAUACAAUUUGAAUGUGACUUUUGUUGGCAGAAAAAAAACCUCACAUCUGAAGAUUACGGGAAAUCUCUCUUAAUAACUGUUGUCGUAUGAACCAAAUUUGAAGGUCUUCCUCUUAGAGACAACAGAGGAUUGAGCAUCA
B9: chr10:128108517:128108518:-_ENSMUSG00000049858_ENSMUST00000054764|mus_mus|motif|central (ssRNA)
RNA: GGGAGUUCUACAGUCCGACGAUCAAACUUAUGCAAAUCAUCCAAGGACAGAGACAGUGACUGACCUCCAGGUGCCCCGGCGGCAUGUAAGCGAUAGGUGUGUGGGUCCAGGUUAGGUACAGGCAGAUGGUUACGGGUGAAGAACAACAGAGGAUUGAGCAUCA
B10: chr7:5108331:5108332:+_ENSG00000146587_ENST00000396912|hu_hu|motif|central (ssRNA)
RNA: GGGAGUUCUACAGUCCGACGAUCUUGCACAUGUGCCUUAAGAUAGUUCUGUUUUGUGCAGUUUUAGGCUAUAAAUAUUCGGGUGCAUGUCCUUUGGUGGACAGACACAUGCAUUUUUGCUGGGUUUGGGUAAAACAGUAUACACAACAGAGGAUUGAGCAUCA
B11: chr15:58001004:58001005:+_ENSG00000255529_ENST00000299638|hu_mus|motif|central (ssRNA)
RNA: GGGAGUUCUACAGUCCGACGAUCGUCUACAUCGGUGUCAGCUCUUGUGGUUGCUUUUUGCCUUAGCUUACAGUCGGCACGGACAGGAUGAAACAGUUCACUUCUCCCUCUAACCUCUUCACGUUCUGAAAUGGCAGCUUUCAGCAACAGAGGAUUGAGCAUCA
B12: chr7:118222036:118222037:-_ENSMUSG00000005610_ENSMUST00000162415|mus_mus|motif|central (ssRNA)
RNA: GGGAGUUCUACAGUCCGACGAUCAUCAAAGUUUGGUGCAUCUUCUGCCAAUCGCAGACAUAGCUGAGCAUACAGCGAGCGGUACUUUGGCUCUUCUAAGGCUUUGUCCACAAUCAGCAGUAUGACCCCUUUAAGGAUGAGUUUCAACAGAGGAUUGAGCAUCA
B13: chr7:98534794:98534795:+_ENSG00000196367_ENST00000456197|hu_mus|FALSE|FALSE (ssRNA)
RNA: GGGAGUUCUACAGUCCGACGAUCUGAGGGCUUUGAAAAGAGCAGCAAUGAUUUUCUCCCUGGACUGAGGUAGGUAAUUGCAGGCAGCGAGAGCAUUCAAUGCUGCGAUCCGUAAGGGCACAAGCGAUGGGAGGCUUUUGUAACCAACAGAGGAUUGAGCAUCA
B14: chr11:77340882:77340883:-_ENSG00000074201_ENST00000525064|hu_hu|FALSE|FALSE (ssRNA)
RNA: GGGAGUUCUACAGUCCGACGAUCAACAUACAAAUGCUCUCCUAGACAGUCACUUCGGUCCCUGGAUAAUGCAUGUAAACUAAUGGUGGGGUAUUCCAGUGAGAAUCCUAAUCCAGAGCCAUCUAACCAAGACAGGCGGCUCUCCAACAGAGGAUUGAGCAUCA

This assay concerns the target T1, UNK ZnF1-3 (human, UniProt Q9C0B0 31-174).
T1 sequence: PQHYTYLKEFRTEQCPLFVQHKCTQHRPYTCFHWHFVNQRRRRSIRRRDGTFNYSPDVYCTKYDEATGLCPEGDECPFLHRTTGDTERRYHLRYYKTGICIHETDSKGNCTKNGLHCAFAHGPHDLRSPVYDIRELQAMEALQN
Nature of the assay: nsRBNS (natural sequence RNA bind-n-seq); RBNS binding buffer (assumed for nsRBNS): 25 mM Tris pH 7.5, 150 mM KCl, 3 mM MgCl2, 0.01% Triton X-100, 500 ug/ml BSA, 20 U/ml SUPERase-In, 4 C; UNK is unkempt and MSI1 is Musashi-1; names of the RNAs are library labels; protein concentration not given here; high values mean tight binding.
The molecule B1 returned a binding signal of 1.04 enrichment R.

Molecule B2 showed a binding signal of 1.27 enrichment R.

As for B3, the binding signal is 1.02 enrichment R.

The molecule B4 yielded a binding signal of 0.55 enrichment R.

The molecule B5 yielded a binding signal of 1.11 enrichment R.

For the molecule B6, the binding signal was found to be 0.921 enrichment R.

In the case of B7, the binding signal came to 0.469 enrichment R.

Regarding B8, the binding signal came out at 0.947 enrichment R.

B9: the binding signal was found to be 1.49 enrichment R.

Molecule B10 gave a binding signal of 0.77 enrichment R.

For B11, the binding signal amounted to 0.525 enrichment R.

B12: the binding signal was 0.616 enrichment R.

B13 displayed a binding signal of 1.14 enrichment R.

Take B14: the binding signal came out at 1.32 enrichment R.
